Data published in article PMC4336329 (PLoS ONE, 2015).
Hit rate of the full screen: of about 310,000 compounds, about 14,000 (4.5%) showed an effect of 50% or more. The effect is printed as a negative number. Some of the results follow.

target: human ether-à-go-go-related gene (hERG) potassium channel (human, UniProt Q12809); test: primary screen, population patch clamp on CHO cells stably expressing hERG
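Further: peak tail current of the secondary pulse compared with the same well before compound.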

Sequence of human ether-à-go-go-related gene (hERG) potassium channel (Q12809 whole entry, looked up): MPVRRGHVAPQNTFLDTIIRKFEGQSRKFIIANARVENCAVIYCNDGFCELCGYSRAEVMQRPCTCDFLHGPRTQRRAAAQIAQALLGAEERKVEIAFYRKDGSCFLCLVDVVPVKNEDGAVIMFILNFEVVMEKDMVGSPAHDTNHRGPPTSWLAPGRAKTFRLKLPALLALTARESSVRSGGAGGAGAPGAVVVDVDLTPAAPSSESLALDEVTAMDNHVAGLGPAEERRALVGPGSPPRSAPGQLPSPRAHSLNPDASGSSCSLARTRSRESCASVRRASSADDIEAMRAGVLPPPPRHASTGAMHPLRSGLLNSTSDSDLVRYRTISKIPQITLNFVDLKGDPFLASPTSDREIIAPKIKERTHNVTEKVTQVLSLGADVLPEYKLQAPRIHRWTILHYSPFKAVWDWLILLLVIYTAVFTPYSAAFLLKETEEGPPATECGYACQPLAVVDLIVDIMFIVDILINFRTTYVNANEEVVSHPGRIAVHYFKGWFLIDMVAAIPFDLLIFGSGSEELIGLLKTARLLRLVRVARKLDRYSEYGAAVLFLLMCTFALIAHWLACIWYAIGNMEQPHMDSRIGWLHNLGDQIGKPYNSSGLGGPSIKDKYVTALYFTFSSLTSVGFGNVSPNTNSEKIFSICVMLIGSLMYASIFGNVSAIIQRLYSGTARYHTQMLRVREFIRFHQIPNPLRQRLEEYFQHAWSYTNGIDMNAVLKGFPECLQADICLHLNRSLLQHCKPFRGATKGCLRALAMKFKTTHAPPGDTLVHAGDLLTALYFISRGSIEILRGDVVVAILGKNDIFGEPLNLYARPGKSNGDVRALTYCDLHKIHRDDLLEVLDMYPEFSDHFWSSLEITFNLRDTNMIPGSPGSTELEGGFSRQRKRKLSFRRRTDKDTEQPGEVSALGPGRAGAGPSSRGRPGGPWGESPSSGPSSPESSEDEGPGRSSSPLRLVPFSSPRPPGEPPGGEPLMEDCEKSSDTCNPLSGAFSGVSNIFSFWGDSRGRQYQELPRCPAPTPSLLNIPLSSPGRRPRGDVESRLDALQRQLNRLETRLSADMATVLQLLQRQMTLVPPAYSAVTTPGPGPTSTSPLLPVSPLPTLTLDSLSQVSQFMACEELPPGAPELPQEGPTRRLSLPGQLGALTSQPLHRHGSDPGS

| SMILES | hERG current change (%, negative = inhibition) at 10uM [%] |
| --- | --- |
| Cc1noc(NS(=O)(=O)c2ccc(NC(=O)C(C)C)cc2)c1C | 15.7 |
| CCCC(CCC)C(=O)Nc1cccc(-c2cn3c(n2)SCC3)c1 | 17.5 |
| Cc1cc(C)c(NC(=O)CS(=O)CC(=O)Nc2cccnc2)c(C)c1 (stereo not drawn) | 14.6 |
| O=C(CCc1ccc(S(=O)(=O)NC2CCCCC2)cc1)NCc1ccccc1 | -19 |
| O=C(CNCCc1ccc(Cl)cc1)Nc1ccc(C(=O)N2CCCCC2)cc1.O=C(O)C(=O)O | -13.4 |
| O=C(NNC(=O)C12CC3CC(CC(Cl)(C3)C1)C2)c1ccncc1 | -6.12 |
| Cc1onc(-c2ccccc2)c1C(=O)N1CCN(S(=O)(=O)c2ccccc2Br)CC1 | -1.99 |
| CCC(C)NC(=O)CNC(=S)N(CCCN1CCOCC1)Cc1cccs1 (stereo not drawn) | -14.4 |
| O=C(Nc1ccc(Oc2ccccc2)cc1)C1CC1 | 2.07 |
| CCCCn1c(N)c(N(CCC(C)C)C(=O)C(C)N2C(=O)c3ccccc3C2=O)c(=O)[nH]c1=O (stereo not drawn) | 8.31 |
| COc1ccc(CNC(=O)C(c2ccncc2)N(C(=O)Cc2cccs2)c2ccc(C)cc2)cc1 (stereo not drawn) | -15.7 |
| Cc1cccc(C)c1OCC(=O)Nc1ccc2c(c1)C(=O)NC2=O | 6.61 |
| O=S(=O)(NCc1ccncc1)c1ccc(S(=O)(=O)NCC2CCCO2)cc1 (stereo not drawn) | -12.2 |
| O=C1C(=O)N(Cc2cccnc2)C(c2ccccn2)/C1=C(/O)c1ccccc1 (stereo not drawn) | 5.51 |
| O=C(CCN1C(=O)S/C(=C\c2ccccc2)C1=O)NC1CCS(=O)(=O)C1 (stereo not drawn) | 5.47 |
| COc1ccccc1C(CNC(=O)c1ccc(S(=O)(=O)NCc2ccco2)cc1)N(C)C (stereo not drawn) | -4.73 |
| Cc1cc(OC(=O)C2CC2)c([N+](=O)[O-])c(=O)[nH]1 | 12.7 |
| CC(C)C(=O)N1CCN(c2ccc(NC(=S)NC(=O)c3cc4ccccc4o3)cc2)CC1 | 1.26 |
| CCNC(=S)NNC(=O)c1cccc(Br)c1 | 15.4 |
| O=c1cc(-c2ccccc2Cl)oc2c([N+](=O)[O-])c(O)cc(O)c12 | 8.63 |
| COc1ccc(C(=O)N2CCN(c3ccc([N+](=O)[O-])c(-n4nc(C)cc4C)c3)CC2)cc1 | -78.2 |
| Cc1cccc(NC(=O)CC2SC(=O)N(c3ccccc3)C2=O)c1 (stereo not drawn) | 17.8 |

| SMILES | hERG current change (%, negative = inhibition) at 10uM [%] |
| --- | --- |
| CCOc1ccc(NS(=O)(=O)c2ccc(C(=O)N3CCN(c4ncccn4)CC3)cc2)cc1 | -11.4 |
| CC(CCc1ccc(O)cc1)NC1C2CC3CC(C2)CC1C3 (stereo not drawn) | -25.6 |
| S=C(c1ccccc1)N1CCCC1 | 17.7 |
| O=C(NCCN1CCOCC1)c1cc2n(n1)C(C(F)(F)F)CC(c1ccc(F)cc1)N2 (stereo not drawn) | 6.47 |
| O=C(Nc1ccc(F)cc1)Nc1cccc(Br)c1 | 8.42 |
| O=C(Nc1cccnc1)c1ccccc1Cl | -7.14 |
| CCc1ccc(C(C)NC(=O)Cn2cnc3c(=O)n(C)c(=O)n(C)c32)cc1 (stereo not drawn) | -17.8 |
| COc1ccc(-n2c(CCc3ccccc3)n[nH]c2=S)cc1 | 14.3 |
| COCCNC(=O)/C(C#N)=C/c1ccc(-c2ccc(OC)cc2[N+](=O)[O-])o1 | -15 |
| CCOC(=O)c1[nH]c2ccc(Cl)cc2c1NC(=O)c1nonc1C | 10.1 |
| N#C/C(=C\c1ccc(C(=O)O)cc1)S(=O)(=O)c1cc(Br)ccc1Br | 8.97 |
| NC(=O)c1ccc(-c2ncc(-c3ccccc3)o2)cc1 | -1.24 |
| Cc1ccc(CCN2CC(C(=O)NCCCN3CCOCC3)CC2=O)cc1 (stereo not drawn) | 22.2 |
| O=c1[nH]c(/C=C2\C=Nc3ccccc32)c(O)n1Cc1ccccc1F | 10.1 |
| Cc1cc(S(=O)(=O)Nc2cccc(C(=O)O)c2)c(C)c(S(=O)(=O)c2ccc(Cl)cc2)c1 | 18.8 |
| CSc1ncccc1C(=O)Nc1nc2ccc(Oc3ccccc3)cc2s1 | 12.6 |
| CCCC(=O)c1c(NC)cc(C)oc1=O | 11.2 |
| CCN1CCN(CCC(=O)Nc2ccccc2C)CC1 | -17.7 |
| CCOc1ccccc1N1CCN(C(=O)c2cccc(-c3ccc(O)cc3)c2)CC1 | 4.89 |
| CCc1ccc(NC(=S)NCc2ccccc2)cc1 | 3.91 |
| CCOC(=O)CN1C(=O)NC(C)(c2ccc(OC(F)F)cc2)C1=O (stereo not drawn) | -11.5 |
| Cn1cccc1/C=N/NC(=O)c1cccs1 | 12.1 |

| SMILES | hERG current change (%, negative = inhibition) at 10uM [%] |
| --- | --- |
| O=C(O)CC(CC(=O)O)c1ccsc1 | 4.05 |
| O=C(N/N=C1\SCC(=O)N1CCc1ccccc1)c1cccs1 | -1.71 |
| O=C(NCc1cccs1)c1ccc(Cl)s1 | -5.32 |
| COc1ccccc1C(=O)NCCC(=O)Nc1cccnc1 | 14.7 |
| C[C@H](NC(N)=O)C(=O)Nc1ccc2c(c1)OCO2 | 4.84 |
| Cc1ccc(Cn2c(SCC(=O)NCC3CCCO3)nc3ccsc3c2=O)cc1 (stereo not drawn) | -30.1 |
| Cc1ccc(NC(=S)N2CCN(C(=O)c3ccccc3)CC2)c(C)c1 | 7.14 |
| COc1ccc(CCNCc2cccc(C(F)(F)F)c2)cc1OC.O=C(O)C(=O)O | 0.584 |
| C=CCn1c(COc2ccc(F)cc2)nnc1SCC(=O)NC1CCS(=O)(=O)C1 (stereo not drawn) | -11.3 |
| CCOc1ccccc1CNC(=O)C1CCCN(c2nnc(C)c3c(C)n(-c4ccccc4)nc23)C1 (stereo not drawn) | 4.08 |
| COc1ccccc1NC(=O)CSc1nnc(-c2ccoc2C)n1CCc1ccccc1 | -64.8 |
| CCOc1ncccc1C(=O)Nc1ccc(S(=O)(=O)NC2=NCCCCC2)cc1 | 4.47 |
| COc1ccc(N(CC(=O)N2CC=C(c3ccccc3)CC2)S(=O)(=O)c2c(C)noc2C)cc1 | 10.1 |
| CC1(NC(=O)Cc2ccc(S(=O)(=O)N3CCOCC3)s2)CCS(=O)(=O)C1 (stereo not drawn) | 17.7 |
| N#Cc1ccc(S(=O)(=O)N2CCc3[nH]c4ccc(F)cc4c3C2)cc1 | 12.1 |
| COc1ccc(-c2cc(=O)c3cc(OC)ccc3o2)cc1 | 11.6 |
| CCC(=O)Nc1ccc(S(=O)(=O)Nc2ccc(Cl)nn2)cc1.Cl | 11.7 |
| CCOc1ccc(C2=CSC3=NCCN23)cc1[N+](=O)[O-] | -75.5 |
| Cn1c(N)c(C(=O)COC(=O)CCc2ccccc2)c(=O)n(C)c1=O | -0.0468 |
| CC(=O)O[C@H]1C[C@@]2(C)[C@@H](C[C@@H](O)[C@H]3[C@@]4(C)CC[C@@H](O)[C@@H](C)[C@@H]4CC[C@@]32C)/C1=C(\CCC=C(C)C)C(=O)O | 0.478 |
| COc1ccccc1/C=C1/C(=O)N(c2ccccc2)N=C1C | 2.5 |
| CCOc1ccccc1CN1CCNC(=O)C1CC(=O)NC1CCCCCCC1 (stereo not drawn) | -7.18 |

| SMILES | hERG current change (%, negative = inhibition) at 10uM [%] |
| --- | --- |
| O=C(O)c1ccc(N2C(=O)CC(SC(=Nc3ccccc3)Nc3ccccc3)C2=O)cc1 (stereo not drawn) | 7.3 |
| O=C(CCC1CCCC1)NC1CCCCC1 | -8.09 |
| O=C(O)C1C2C=CC(C2)C1C(=O)NCc1ccc2c(c1)OCO2 (stereo not drawn) | -6.95 |
| CN(C(=O)NC1CCCCC1)c1ccccc1 | 19.8 |
| CCOc1ccc(OCC(=O)N(CCC2=CCCCC2)c2c(N)n(Cc3ccccc3)c(=O)[nH]c2=O)cc1 | -2.91 |
| Cc1ccc(NC(=O)COC(=O)c2cc(C)nc3ccccc23)c([N+](=O)[O-])c1 | 10.5 |
| CCCCN1CC[C@H]2C=CC[C@@H](C(=O)Nc3ccc(OC)cc3)[C@H]2C1=O | -26.1 |
| CCOCCCNC(=O)COc1ccc(OC)cc1 | 13.2 |
| CCOc1ccc(C(=O)Nc2cccc(-c3cc4ccccc4oc3=O)c2)cc1[N+](=O)[O-] | 6.3 |
| Cc1ccccc1C(=O)NCCn1cc(SCC(=O)NCC2CCCO2)c2ccccc21 (stereo not drawn) | -3.71 |
| CCN(CC)C(=S)Nc1cc(C(=O)OC)ccc1C(=O)OC | 9.5 |
| COc1cccc(-c2cc(C(=O)N3CCCCC3C)no2)c1 (stereo not drawn) | 3.5 |
| CCCOc1ccc(OCCCCNC(C)CC)cc1.O=C(O)C(=O)O (stereo not drawn) | -18.9 |
| Cn1c(=O)cc(OCCCC(=O)NCCCN2CCN(Cc3ccccc3)CC2)c2ccccc21 | -28.3 |
| CCOC(=O)c1c(C)[nH]c(C(=O)CSc2nnc(CC(C)c3ccccc3)o2)c1C (stereo not drawn) | -1.18 |
| C=CCn1c(O)c(C=Nc2c(C)n(C)n(-c3ccccc3)c2=O)c(=O)[nH]c1=O | -81.6 |
| Cn1nc(C(=O)NCc2ccc(F)cc2)c2c1-c1ccccc1S(=O)(=O)C2 | -44.9 |
| O=C(NCc1ccc(F)cc1)C(=O)NCC1OCCCN1S(=O)(=O)c1cccs1 (stereo not drawn) | -15.9 |
| O=C(O)CCSc1nc2ccccc2n1Cc1ccccc1 | 24.1 |
| CC(C)(C)C(=O)O/N=C(\N)c1ccc(Br)cc1 | 7.57 |
| CC(C)NC(=O)Cn1cnc2c(cnn2-c2ccc(F)cc2)c1=O | 10.8 |
